This note sets out measurements from the supplement of paper PMC3334620.

In all, about 33,000 sequences were measured (“E-score (-0.5 to 0.5)”: median about -0.054, highest 2% from about 0.35 on). Some of the results follow.

This assay concerns the target T1, Stb5 (UniProt P38699).
T1 sequence: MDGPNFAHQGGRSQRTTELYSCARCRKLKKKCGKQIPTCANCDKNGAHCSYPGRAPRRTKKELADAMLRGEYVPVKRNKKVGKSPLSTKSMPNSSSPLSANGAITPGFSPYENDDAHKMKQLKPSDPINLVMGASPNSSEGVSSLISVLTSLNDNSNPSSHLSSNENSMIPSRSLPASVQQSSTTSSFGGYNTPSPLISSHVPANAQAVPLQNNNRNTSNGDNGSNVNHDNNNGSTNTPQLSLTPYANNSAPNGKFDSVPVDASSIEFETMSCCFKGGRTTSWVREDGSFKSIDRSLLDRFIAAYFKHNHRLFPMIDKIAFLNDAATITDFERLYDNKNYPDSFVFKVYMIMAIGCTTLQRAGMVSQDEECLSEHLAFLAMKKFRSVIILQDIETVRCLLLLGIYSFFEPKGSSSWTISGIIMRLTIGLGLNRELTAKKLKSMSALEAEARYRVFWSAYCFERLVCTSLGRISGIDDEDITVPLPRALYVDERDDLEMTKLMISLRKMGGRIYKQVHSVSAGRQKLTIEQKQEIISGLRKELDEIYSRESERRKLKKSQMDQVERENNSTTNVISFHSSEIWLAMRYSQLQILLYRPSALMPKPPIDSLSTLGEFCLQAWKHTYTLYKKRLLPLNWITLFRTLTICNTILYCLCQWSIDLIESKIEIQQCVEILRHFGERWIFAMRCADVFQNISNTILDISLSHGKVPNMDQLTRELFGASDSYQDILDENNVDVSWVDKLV
In words: PBM E-score (8-mer binding enrichment) (E-score (-0.5 to 0.5)); higher = stronger / more preferred TF binding; most listed sequences are background and not binding sites. Particulars: protein concentration: 200 nM; construct: GST-full length. On the procedure:
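Universal 'all 10-mer' protein binding microarrays (Agilent AMADID 015681) probed with GST-tagged S. cerevisiae TFs (full-length or DBD) made by in vitro transcription/translation (PURExpress), about 100-200 nM. Bound TF was detected with fluorescent anti-GST. Each ungapped 8-mer (which stands for itself and its reverse complement) is scored by the PBM enrichment score (E-score), a modified Wilcoxon-Mann-Whitney statistic from -0.5 to +0.5, computed with the Universal PBM Analysis Suite. Scale: above 0.35 generally sequence-specific binding.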
With CTGCTCCC, the “PBM E-score” value is -0.16.
For ATAAAGTA, the “PBM E-score” value is -0.0902.
On to AAAAGCTA, for which the “PBM E-score” value was -0.167.
For the sequence CACCCTCA, the “PBM E-score” value is -0.305.
ACGCCCGG: the “PBM E-score” value came to 0.267.
For the sequence GGGTTTTA, the “PBM E-score” value came to 0.322.
As to AAGTCTTG, the “PBM E-score” value is -0.201.
For CGGGGCTA, the “PBM E-score” value turned out to be 0.454.
Consider CTTTACTC, for which the “PBM E-score” value was -0.0779.
Take GATGCTGA: the “PBM E-score” value was -0.156.
GACGCTAC: the “PBM E-score” value was -0.0535.
Regarding ACGGAAAG, the “PBM E-score” value was 0.0988.
In the case of ACTAACCT it was 0.0923; in that of CTATACCC, 0.229; in that of CTTACCAA, -0.0606.
In the case of TGTCACAA it was -0.14; in that of CCAACACG, -0.16; in that of GCCTGTCC, -0.216.
In the case of CGGACGAG, the “PBM E-score” value was -0.0529.
Turning to GTACCGCA, the “PBM E-score” value stood at 0.298.
For the sequence AATGAATA, the “PBM E-score” value amounted to 0.0406.
Take CGCACAAC: the “PBM E-score” value amounted to 0.014.
Turning to TCTTCACA, the “PBM E-score” value is -0.0418.
For ATCTCCGA, the “PBM E-score” value amounted to 0.394.
Turning to CACCTAGC, the “PBM E-score” value was -0.0338.
Take GTGATATA: the “PBM E-score” value was 0.124.
In the case of ACTGAGTC, the “PBM E-score” value was found to be 0.0194.
Regarding ATGAAGCC, the “PBM E-score” value came out at 0.187.
Take AGGAATTG: the “PBM E-score” value is -0.166.
With GGCCGCGA, the “PBM E-score” value turned out to be 0.0902.
In the case of ATCCCGGG, the “PBM E-score” value came to 0.299.
In the case of CCGAGTAG it was 0.105.
Regarding CAGCTGAA, the “PBM E-score” value was -0.317.
In the case of CAGATGAC it was -0.077; in that of ACAACAGT, -0.181.
Regarding AACGGCAT, the “PBM E-score” value came to 0.326.
For the sequence ACTCAAAC, the “PBM E-score” value amounted to 0.0633.
Consider CTCAGCGC, for which the “PBM E-score” value is 0.0753.
GACTTACC: the “PBM E-score” value stood at 0.208.
Take AACAATTG: the “PBM E-score” value is -0.274.
As to GGGGGGTA, the “PBM E-score” value was determined as 0.0523.
As for GGCCCCCA, the “PBM E-score” value was -0.198.
In the case of ACGACCCC it was -0.0617; in that of CTACTAGC, 0.0168; in that of ATTTTGTC, -0.00468.
Regarding GGCGAGAC, the “PBM E-score” value is -0.151.
In the case of CAGTCGAA it was -0.0905; in that of AAGTTATT, -0.0193.
For ACCTTCAT the value was 0.0802; for GGCCATCA, -0.154.
With ACGCTAAA, the “PBM E-score” value was -0.162.
Regarding GATCTGAA, the “PBM E-score” value was -0.185.
For the sequence CCTAGGAA, the “PBM E-score” value is -0.181.
For ATAAAGTG the value was -0.164.
Take CTGAAGCC: the “PBM E-score” value was -0.00186.
Take CCTTTACG: the “PBM E-score” value was -0.0771.
For the sequence AATGGAAT, the “PBM E-score” value is -0.149.
On to GATGTCTA, for which the “PBM E-score” value was -0.144.
For CAGTACGC, the “PBM E-score” value was -0.143.
As for CTGACTCA, the “PBM E-score” value is -0.14.
In the case of ATAGTTTC, the “PBM E-score” value is -0.143.
Take ACTAGATA: the “PBM E-score” value was -0.0499.
CAATGTGG: the “PBM E-score” value was -0.217.
On to CTGCCCGC, for which the “PBM E-score” value came out at 0.06.
Take GCACGGGA: the “PBM E-score” value turned out to be 0.147.
In the case of GACCTTTA it was 0.0314.
On to GAAGCGTA, for which the “PBM E-score” value is -0.132.
For CGGTTATA the value was 0.37.
For AACTGGAT, the “PBM E-score” value is -0.146.
Regarding AATCTATC, the “PBM E-score” value is -0.0149.
Take ACTGAGGC: the “PBM E-score” value was -0.179.
In the case of CAGTGCCC it was 0.00392; in that of AATACTCC, 0.173.
As for CTTATCCC, the “PBM E-score” value was 0.0404.
With CGTCGGGC, the “PBM E-score” value came out at 0.361.
Consider GAACTAAC, for which the “PBM E-score” value was determined as 0.0376.
In the case of GCCTCTAA it was -0.0692; in that of CGATAACC, 0.16.
In the case of CCTTTCCA, the “PBM E-score” value was determined as 0.0223.
Consider ATCCATCA, for which the “PBM E-score” value was -0.29.
As for GGTCAGAC, the “PBM E-score” value is -0.106.
AAAACATT: the “PBM E-score” value is -0.255.
On to CCATTAAG, for which the “PBM E-score” value was found to be 0.00816.
In the case of GCAATGAC, the “PBM E-score” value was -0.137.
For TCCCACAA the value was 0.0012.
As to CGGTAGTC, the “PBM E-score” value turned out to be 0.18.
Turning to ACCAGGCG, the “PBM E-score” value is 0.0866.
In the case of GAAGTCTA it was -0.207; in that of ATGCAAGA, -0.163.
In the case of AGGATAAT it was -0.0958; in that of AGCATCGA, -0.133.
On to AACATCTT, for which the “PBM E-score” value is 0.0125.
In the case of TGTGCGAA it was -0.201.
In the case of CAAGTAGG, the “PBM E-score” value is -0.242.
In the case of GACCTCTA it was -0.195; in that of AAACACGC, 0.0764; in that of ACGTCGCG, -0.0918.
In the case of GTCATAAA it was 0.0467; in that of GACGATCA, -0.17.
On to AACATCGC, for which the “PBM E-score” value amounted to 0.0424.
As for GCTTTGGA, the “PBM E-score” value is -0.0727.
In the case of AATTGGAT, the “PBM E-score” value is -0.0326.
Take CAACTCCA: the “PBM E-score” value is -0.162.
Consider ATTAAAAT, for which the “PBM E-score” value is -0.0244.
For TAATAAGA the value was 0.0281.
Take CTTATTCA: the “PBM E-score” value was -0.0668.
For CGGGACTC, the “PBM E-score” value stood at 0.184.
With ATCCCTGG, the “PBM E-score” value was -0.253.
Consider AATAACTA, for which the “PBM E-score” value is -0.217.
Consider CGTCGAGA, for which the “PBM E-score” value was -0.112.
